Test results reported in PubChem BioAssay AID504832 (National Center for Advancing Translational Sciences (NCATS), 2011).
In all, about 310,000 compounds went through this assay and about 18,000 (5.8%) were called active. Inconclusive results, whose numbers are uncertain, are shown with a selection of clear calls. Calls come from the whole dose curve; as a rule, active = well fitted inhibition curve with a large enough effect; inconclusive = small, poorly fitted or top-dose-only effect, or another doubt; inactive = no such curve, though single readings can be large or run the other way. Potencies of inconclusive entries are left out as doubtful fits.

test: Primary qHTS for delayed death inhibitors of the malarial parasite plastid, 48 hour incubation; conditions: P. falciparum luciferase growth in erythrocytes; series mostly up to 28.7 µM; activity change, negative = inhibition: at the top concentration
Procedure, shortened: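 In quantitative HTS format, infected erythrocytes bearing luciferase-reporter parasites were treated for a single generation at 37 C. Luminescence after adding detection reagent served as the growth measure.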
% is set by controls: 0 for no effect and ±100 for the full control effect; potency is the fitted concentration of half-maximal effect; tags give direction and shape of the fitted curve.

Question: Which Potency does the source give for `COc1cc(NC(=O)CSc2nc3ccccc3n2-c2ccccc2)c(C)cc1[N+](=O)[O-]` here?
Answer: active: 11.7 µM

Question: For `CNC(=O)c1c(NC(=O)c2cccc(N3C(=O)CCC3=O)c2)sc2c1CCCC2`, which “activity change, negative = inhibition” value is on record?
Answer: inactive: 15.8%

Question: With `CC1(C)CC(=O)C2=C(C1)NC(=O)CC2c1cc2c(cc1Br)OCO2` (centres undefined) as the compound, how does the Potency read?
Answer: inconclusive [inhibitor, partial curve]

Question: With `COc1ccc(S(=O)(=O)Nc2cccnc2)cc1` as the compound, how does the Potency read?
Answer: inconclusive [inhibitor, single point]

Question: Which “activity change, negative = inhibition” value does the source give for `CCN(CC(=O)Nc1ccc(NC(C)=O)cc1)C(=O)c1oc2ccccc2c1C` here?
Answer: inactive: 36.7%

Question: Which “activity change, negative = inhibition” value does the source give for `O=C(O)CNC(=O)c1ccc(NC(=O)/C(=C/c2cccc([N+](=O)[O-])c2)NC(=O)c2ccco2)cc1` here?
Answer: inactive: -6.17%

Question: With `O=C(NCCc1csc(-c2ccc(C(F)(F)F)cc2)n1)c1cccs1` as the compound, how does the Potency read?
Answer: inconclusive [inhibitor, single point]

Question: With `CC(=O)N/N=C(\C)c1ccc2c(c1)OCCO2` as the compound, how does the “activity change, negative = inhibition” value read?
Answer: inactive: 37.4%

Question: With `COc1ccccc1CNC(=O)c1c(N)n(CCCN2CCOCC2)c2nc3ccccc3nc12` as the compound, how does the Potency read?
Answer: inconclusive [inhibitor, single point]

Question: For `COc1ccc(C(C(=O)Nc2ccc(F)cc2)N(C(=O)Cn2nnc3ccccc32)C2CC2)cc1` (centres undefined), which Potency is on record?
Answer: active: 5.86 µM

Question: For `O=C(c1ccc2c(=O)n3c(nc2c1)CCC3)N1CCCSC1=Nc1ccccc1`, which Potency is on record?
Answer: inconclusive [inhibitor, partial curve, poor fit]

Question: With `O=C(COc1cc2oc(=O)c3c(c2cc1Cl)CCC3)NCc1ccccn1` as the compound, how does the “activity change, negative = inhibition” value read?
Answer: inactive: 27.3%

Question: For `O=S(=O)(c1ccccc1)c1nc(NCc2ccccc2)sc1Cl`, which Potency is on record?
Answer: inconclusive [inhibitor, single point]

Question: Which “activity change, negative = inhibition” value does the source give for `Cc1cc(=O)[nH]c(SCC(=O)C23CC4CC(CC(C4)C2)C3)c1C#N` here?
Answer: inactive: -3.4%

Question: For `O=Cc1ccc(OC(=O)CCCCC(=O)Oc2ccc(C=O)cc2)cc1`, which Potency is on record?
Answer: inconclusive [inhibitor, partial curve]

Question: For `O=C(Nc1nc2ccsc2c(=O)s1)c1ccc(Cl)cc1`, which “activity change, negative = inhibition” value is on record?
Answer: inactive: 215%

Question: For `Cc1cc(C(=O)CN2CCN(CC(=O)Nc3cccc(F)c3)CC2)c(C)n1C1CC1`, which Potency is on record?
Answer: inconclusive [inhibitor, partial curve, poor fit]

Question: Which “activity change, negative = inhibition” value does the source give for `Clc1ncnc2c1oc1ccccc12` here?
Answer: inactive: 127%

Question: With `CCOC(=O)COc1cnc2ccccc2n1` as the compound, how does the Potency read?
Answer: inconclusive [inhibitor, partial curve, poor fit]

Question: Which Potency does the source give for `COc1ccc(S(=O)(=O)N2CCN(c3nc(C)cc(C)n3)CC2)cc1` here?
Answer: inconclusive [inhibitor, partial curve, poor fit]

Question: With `COc1ccccc1N1CCN(C2CCCN(Cc3cc(F)cc(F)c3)C2)CC1` (centres undefined) as the compound, how does the Potency read?
Answer: inconclusive [inhibitor, full curve, poor fit]

Question: With `COc1ccccc1CC(=O)OC(C)C(=O)Nc1ccc(S(=O)(=O)N2CCCCC2)cc1` (centres undefined) as the compound, how does the Potency read?
Answer: inconclusive [inhibitor, single point]

Question: Which “activity change, negative = inhibition” value does the source give for `O=C(NC(=O)c1ccccc1)Nc1cccc(S(=O)(=O)N2CCCCC2)c1` here?
Answer: inactive: 30.1%

Question: With `COc1ccc(C2C(C(=O)Nc3cccc(OC)c3)c3ccccc3C(=O)N2C)cc1` (centres undefined) as the compound, how does the Potency read?
Answer: inconclusive [inhibitor, partial curve]

Question: For `O=C(CNc1cccc2ccccc12)N/N=C/c1ccc(OC(=O)/C=C/c2ccco2)cc1`, which Potency is on record?
Answer: inconclusive [inhibitor, single point]

Question: For `Cc1ccc(/C=N/N2CCN(c3ccc(Cl)cc3)CC2)o1`, which “activity change, negative = inhibition” value is on record?
Answer: inactive: -1.72%

Question: With `CCOC(=O)C1=CN(Cc2ccc(OC)cc2)C=C(C(=O)OCC)C1c1cccs1` as the compound, how does the Potency read?
Answer: inconclusive [inhibitor, full curve, poor fit]

Question: For `COc1ccc(NC(=O)c2cc(S(=O)(=O)N3CCCC3)ccc2OC)cc1`, which “activity change, negative = inhibition” value is on record?
Answer: inactive: -4.84%

Question: Which “activity change, negative = inhibition” value does the source give for `CCc1ccc(NC(=S)N2CCN(S(=O)(=O)c3ccccc3)CC2)cc1` here?
Answer: inactive: 13.2%

Question: Which Potency does the source give for `CCOC(=O)c1sc(-c2ccc(Cl)cc2)nc1O` here?
Answer: inconclusive [inhibitor, single point]

Question: Which Potency does the source give for `CCN1CCN(CCc2nc3cc(NC(=O)COc4ccc(Cl)cc4)ccc3n2C)CC1` here?
Answer: active: 5.22 µM

Question: For `CCOc1ccc(-c2cc(C)[n+](CCN(CC)CC)c(-c3ccc(OCC)cc3)c2)cc1`, which Potency is on record?
Answer: active: 0.329 µM

Question: Which Potency does the source give for `O=C(CCl)N1CCN(S(=O)(=O)Cc2ccccc2)CC1` here?
Answer: inconclusive [inhibitor, single point]

Question: For `Nc1nc(Nc2ccccc2)nc(NCc2ccco2)c1[N+](=O)[O-]`, which Potency is on record?
Answer: inconclusive [inhibitor, single point]

Question: Which Potency does the source give for `CCCN1C(=O)/C(=C/c2ccc(C)o2)SC1=Nc1ccc(OC)cc1` here?
Answer: inconclusive [inhibitor, partial curve, poor fit]

Question: With `O=C(c1ccco1)N(Cc1ccccc1)c1cccc([N+](=O)[O-])c1` as the compound, how does the Potency read?
Answer: inconclusive [inhibitor, single point]

Question: For `COc1cccc(CC(=O)N(CCC2=CCCCC2)c2c(N)n(Cc3ccccc3)c(=O)[nH]c2=O)c1`, which Potency is on record?
Answer: inconclusive [inhibitor, single point]

Question: Which “activity change, negative = inhibition” value does the source give for `CCC(C(=O)N1CCN(c2ncccn2)CC1)c1ccccc1` (centres undefined) here?
Answer: inactive: 117%

Question: With `O=C(NCCN1CCOCC1)NC1(C(F)(F)F)Oc2ccc(Cl)cc2O1` (centres undefined) as the compound, how does the Potency read?
Answer: inconclusive [inhibitor, single point]

Question: Which Potency does the source give for `CCN(CC(=O)Nc1cc(Cl)ccc1C)C(=O)CCOc1ccc(C)cc1` here?
Answer: inconclusive [inhibitor, single point]

Question: With `N#C/C(=C\c1cccnc1)C(=O)Nc1ccccc1[N+](=O)[O-]` as the compound, how does the Potency read?
Answer: inconclusive [inhibitor, partial curve]

Question: For `O=C(CN1CCN(S(=O)(=O)c2cccc(F)c2)CC1)NCC1(N2CCOCC2)CCCCC1`, which Potency is on record?
Answer: inconclusive [inhibitor, single point]

Question: For `Nc1c(S(=O)(=O)c2ccccc2)c2nc3ccccc3nc2n1/N=C/c1ccco1`, which Potency is on record?
Answer: inconclusive [inhibitor, single point]

Question: With `O=C(NCc1nnc(SCC(=O)N2CCC(Cc3ccccc3)CC2)o1)c1ccccc1F` as the compound, how does the “activity change, negative = inhibition” value read?
Answer: inactive: 8.78%

Question: For `O=C(Nc1ccccc1N1CCOCC1)c1cc(Cl)c2c(c1)OCO2`, which Potency is on record?
Answer: inconclusive [inhibitor, single point]

Question: With `CC1CCCN(c2nc3c(c(=O)n(C)c(=O)n3C)n2Cc2ccccc2)C1` (centres undefined) as the compound, how does the Potency read?
Answer: inconclusive [inhibitor, single point]

Question: Which Potency does the source give for `CCN(CC)c1ccc(/C=N/NC(=O)c2cccc(S(=O)(=O)N3CCOCC3)c2)c(O)c1` here?
Answer: active: 10.4 µM

Question: With `S=C(NCc1ccco1)Nc1ccc(Cl)cc1` as the compound, how does the “activity change, negative = inhibition” value read?
Answer: inactive: 43.3%

Question: For `COc1ccc(Cn2ccnc2SCC(=O)Nc2nnc(C)s2)cc1`, which Potency is on record?
Answer: inconclusive [inhibitor, partial curve, poor fit]

Question: With `COc1ccc(S(=O)(=O)N2CCOC2CNC(=O)C(=O)NCc2ccco2)cc1` (centres undefined) as the compound, how does the Potency read?
Answer: inconclusive [inhibitor, single point]

Question: For `Cc1ccc(NC(=O)COc2ccccc2)cc1S(=O)(=O)N1CCCCCC1`, which Potency is on record?
Answer: inconclusive [inhibitor, partial curve, poor fit]

Question: With `CCOc1ccc(Oc2ccccc2NS(=O)(=O)c2ccc(CCC(=O)O)cc2)cc1` as the compound, how does the “activity change, negative = inhibition” value read?
Answer: inactive: 3.65%

Question: With `CC1CCCC(C)N1C(=O)CSc1nnc(NC(=O)Cc2cccs2)s1` (centres undefined) as the compound, how does the Potency read?
Answer: inconclusive [inhibitor, full curve, poor fit]

Question: With `C/C(=N\Nc1nc(N2CCOCC2)nc(N2CCOCC2)n1)c1ccc([N+](=O)[O-])cc1` as the compound, how does the Potency read?
Answer: inconclusive [inhibitor, partial curve, poor fit]

Question: With `Cc1csc(NC(=O)CCCNC(=O)c2ccc(Cl)cc2)n1` as the compound, how does the Potency read?
Answer: inconclusive [inhibitor, partial curve, poor fit]

Question: Which “activity change, negative = inhibition” value does the source give for `Nc1nnn(Cc2ccccc2)n1` here?
Answer: inactive: -10.7%

Question: With `CC1CN(c2nc3ccccc3nc2C(C#N)C(=O)OC2CCCCC2)CC(C)O1` (centres undefined) as the compound, how does the Potency read?
Answer: active: 2.08 µM

Question: For `CC(C)CCn1c(=O)c(C(=O)NCc2ccco2)c(O)c2ccccc21`, which Potency is on record?
Answer: inconclusive [inhibitor, single point]

Question: With `O=C(NCc1ccco1)c1cnn2c(C(F)(F)F)cc(-c3cccs3)nc12` as the compound, how does the Potency read?
Answer: inconclusive [inhibitor, partial curve, poor fit]

Question: Which “activity change, negative = inhibition” value does the source give for `CCC(CCC(=O)NNC(=O)Cc1ccc([N+](=O)[O-])cc1)C(=O)O` (centres undefined) here?
Answer: inactive: -4.77%

Question: Which Potency does the source give for `O=C(c1cn(-c2ccccc2)nc1-c1ccc(Cl)s1)N1CCOCC1` here?
Answer: inconclusive [inhibitor, single point]

Question: With `O=C(CCN1C(=O)C2CCCCC2C1=O)N1CCN(S(=O)(=O)c2ccccc2)CC1` (centres undefined) as the compound, how does the Potency read?
Answer: inconclusive [inhibitor, single point]

Question: Which Potency does the source give for `Cc1c(C)c2c(OCC(=O)N[C@@H](CC(C)C)C(=O)O)cc3c(c2oc1=O)CCC(C)(C)O3` here?
Answer: inconclusive [inhibitor, single point]

Question: For `CC(NC(=O)Cc1ccc(F)cc1)C(c1cccs1)N1CCN(C)CC1` (centres undefined), which Potency is on record?
Answer: inconclusive [inhibitor, single point]

Question: With `COC(=O)c1nc(NNC(=O)c2ccccc2)sc1-c1ccccc1` as the compound, how does the “activity change, negative = inhibition” value read?
Answer: inactive: 17.8%

Question: For `COc1cccc(CNC(=O)CN2C(=O)COc3ccc(S(=O)(=O)N4CCOCC4)cc32)c1`, which “activity change, negative = inhibition” value is on record?
Answer: inactive: 11.4%

Question: With `CCS(=O)(=O)N1Cc2ccccc2CC1C(=O)Nc1ccccc1OC` (centres undefined) as the compound, how does the Potency read?
Answer: inconclusive [inhibitor, partial curve, poor fit]

Question: With `O=C(O)Cn1c(C(=O)Nc2nc(-c3ccccc3Cl)cs2)cc2ccccc21` as the compound, how does the “activity change, negative = inhibition” value read?
Answer: inactive: -14.1%

Question: With `CCOC(=O)C1CCN(C(=O)C2CCN(c3nn4c(=O)cc(C)nc4s3)CC2)CC1` as the compound, how does the Potency read?
Answer: inconclusive [inhibitor, single point]
